# In PubChem BioAssay AID1346428 (National Center for Advancing Translational Sciences (NCATS), 2018):
# About 1,200 (2.5%) of roughly 48,000 compounds were called active. About 2% were inconclusive and are not listed.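 Rule for the calls: active = activation of at least 60% and not above a set upper limit (about 1 call in 100 departs from these limits); inconclusive = activation of 40% to 60%, or above that upper limit; inactive = activation under 40%.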 The list shows a part of the results.
# Target: Probable G-protein coupled receptor 32 (Homo sapiens) (UniProt O75388)
# Experiment: qHTS for Agonists of Human Resolvin D1 Receptor DRV1; note: 0% is about no effect
# Settings: CHO-K1 GPR32 beta-arrestin PathHunter luminescence, 90 min; at 76.9 µM; active compounds read high; zero percent set by DMSO-only wells
# Procedure, shortened: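 Using DMSO wells as EC0, agonist-induced signal was taken as chemiluminescence from beta-Gal reconstituted upon beta-arrestin recruitment to GPR32 in CHO-K1 cells after 90 min compound treatment.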
# Chain of UniProt O75388 (O75388 whole entry, looked up): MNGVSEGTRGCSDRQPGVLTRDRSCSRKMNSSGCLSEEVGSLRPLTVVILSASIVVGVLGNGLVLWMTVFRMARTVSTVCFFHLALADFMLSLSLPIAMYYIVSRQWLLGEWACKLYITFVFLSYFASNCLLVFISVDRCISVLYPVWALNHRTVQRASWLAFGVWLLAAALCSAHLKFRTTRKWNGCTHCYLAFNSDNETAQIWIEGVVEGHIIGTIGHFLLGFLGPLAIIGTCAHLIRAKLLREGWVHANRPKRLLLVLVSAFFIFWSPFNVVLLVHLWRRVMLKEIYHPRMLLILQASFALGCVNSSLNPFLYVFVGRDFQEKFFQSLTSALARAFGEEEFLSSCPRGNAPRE
row,SMILES,activation
1,Cc1ccccc1-c1noc(-c2ccc(N3CCN(c4ccccc4)CC3)c([N+](=O)[O-])c2)n1,inactive: 4.45%
2,CC(=O)OCc1cc(=O)n2nc(C3CCCCC3)sc2n1,inactive: 14.8%
3,COc1ccc(S(=O)(=O)n2nc(C)c(S(=O)(=O)N3CCCCC3)c2C)cc1,inactive: 11%
4,Cc1c(Cl)cccc1-n1ncc(C(=O)N2CCN(C)CC2)c1C1CCN(C(=O)OC(C)(C)C)CC1,inactive: 26.6%
5,Cc1ccc(NC(=O)C(=O)NCC(c2cccnc2)N2CCOCC2)cc1 (stereo not drawn),inactive: 9.72%
6,CC1CCN(C(=O)c2ccc3c(c2)N(Cc2ccccc2F)C(=O)c2ccccc2S3(=O)=O)CC1,inactive: -10.6%
7,C=C(C)Cn1c(SCC(=O)Nc2ccccc2C)nc2sc3c(c2c1=O)CCCC3,inactive: 0.0224%
8,CCc1cccc2c(CCO)c[nH]c12,inactive: 25.1%
9,COc1ccc(CNC(=O)Cn2nc(C)n3cccc3c2=O)cc1,inactive: -16.9%
10,COc1ccc(-c2nc(SCC(=O)NC3CCCC3)c(-c3ccc(OC)cc3)[nH]2)cc1,inactive: -30.8%
11,COc1ccccc1N1CCN(C(=O)c2cc3c(=O)n(C)c4ccccc4c3s2)CC1,inactive: 10.1%
12,COc1ccccc1-c1noc(-c2ccc(N3CCOCC3)c([N+](=O)[O-])c2)n1,inactive: -29.6%
13,COCCCN(Cc1ccco1)C(=O)c1cc2c(s1)-c1ccccc1OC2,inactive: -5.79%
14,CC(=O)c1ccc(N2CCN(c3ncnc4c3c(-c3ccccc3)cn4-c3ccc(C)c(Cl)c3)CC2)cc1,inactive: -2.26%
15,CC(C)Cn1c(=O)c2ccccc2n2c(CCC(=O)N3CCN(c4cccc(Cl)c4)CC3)nnc12,inactive: -46.4%
16,COc1ccc(NC(=O)Cn2c(=O)n(-c3ccc(C)cc3)c(=O)c3c2c2cc(C)ccc2n3C)cc1,inactive: -5.32%
17,Cc1nn(C)c(C)c1S(=O)(=O)N(CC(=O)Nc1ccc(F)cc1F)c1ccc(C(C)C)cc1,inactive: -26.2%
18,Cc1ccc(Cc2c(C)nc3nc(SCC(=O)NCCC(C)C)nn3c2C)cc1,inactive: 5.33%
19,Cc1ccc(CN2C(=O)SC(Nc3ccc(Cl)cc3)C2=O)cc1 (stereo not drawn),active: 61.5%
20,O=C(Nc1onc2c1CCCC2)c1ccccc1,inactive: 24.2%
21,COc1cccc(CNC(=O)C(=O)NCC(c2ccco2)S(=O)(=O)c2ccccc2)c1 (stereo not drawn),inactive: -13.3%
22,O=C(CN1C(=O)CCn2nc(-c3ccccc3)cc21)NCc1ccccc1,inactive: -12%
23,COc1ccccc1CNC(=O)c1cnc2sc(N3CCCCC3)nn2c1=O,inactive: -1.24%
